Reference: patent CN112961250A (CHANGCHUN GENESCIENCE PHARMACEUTICALS CO LTD, dated 2021)

Molecular target: T1, 人VEGFA-His(金赛自构) (human, UniProt P15692 207-395)
T1 construct: also called hVEGFA
T1 sequence: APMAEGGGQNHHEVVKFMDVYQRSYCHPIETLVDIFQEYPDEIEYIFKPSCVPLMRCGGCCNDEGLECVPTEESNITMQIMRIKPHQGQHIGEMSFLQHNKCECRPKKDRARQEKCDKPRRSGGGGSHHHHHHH
Assay: ELISA, human VEGFA-His coated at 1 μg/ml

B1: Eylea (Fc fusion)
chain: SDTGRPFVEMYSEIPEIIHMTEGRELVIPCRVTSPNITVTLKKFPLDTLIPDGKRIIWDSRKGFIISNATYKEIGLLTCEATVNGHLYKTNYLTHRQTNTIIDVVLSPSHGIELSVGEKLVLNCTARTELNVGIDFNWEYPSSKHQHKKLVNRDLKTQSGSEMKKFLSTLTIDGVTRSDQGLYTCAASSGLMTKKNSTFVRVHEK[letters of human IgG1 Fc left out]
notes: Marketed drug used as the control; also called 再生元公司上市抗hVEGFA药物; 阳性对照药物Eylea
binding result: binds
